Results on 111 compounds are retold here after PubChem BioAssay AID488969 (Vanderbilt High Throughput Screening Facility, 2010).

The full ranking holds about 110,000 compounds; the median of “z-score” is about -0.1, and the highest 2% start at about 2. This is one part of the list. Active and inactive are the calls of the source.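 How the source made its calls: active means z-score in the third read window above 3 or below -3; inactive means the rest.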

This test addresses Metabotropic glutamate receptor 8 (Rattus norvegicus) (UniProt P70579). The test can be described thus: rat mGluR8 modulators via GIRK flux, primary screen, cell-based, thallium flux, HTS (AID 488969). The note with it: HEK293 rat mGluR8, GIRK (G protein-gated inwardly rectifying potassium channel) thallium flux, FluoZin2; at 10 µM; stronger effect = higher value; submaximal glutamate (EC20) added with thallium.
Chain of UniProt P70579 (P70579 whole entry, looked up): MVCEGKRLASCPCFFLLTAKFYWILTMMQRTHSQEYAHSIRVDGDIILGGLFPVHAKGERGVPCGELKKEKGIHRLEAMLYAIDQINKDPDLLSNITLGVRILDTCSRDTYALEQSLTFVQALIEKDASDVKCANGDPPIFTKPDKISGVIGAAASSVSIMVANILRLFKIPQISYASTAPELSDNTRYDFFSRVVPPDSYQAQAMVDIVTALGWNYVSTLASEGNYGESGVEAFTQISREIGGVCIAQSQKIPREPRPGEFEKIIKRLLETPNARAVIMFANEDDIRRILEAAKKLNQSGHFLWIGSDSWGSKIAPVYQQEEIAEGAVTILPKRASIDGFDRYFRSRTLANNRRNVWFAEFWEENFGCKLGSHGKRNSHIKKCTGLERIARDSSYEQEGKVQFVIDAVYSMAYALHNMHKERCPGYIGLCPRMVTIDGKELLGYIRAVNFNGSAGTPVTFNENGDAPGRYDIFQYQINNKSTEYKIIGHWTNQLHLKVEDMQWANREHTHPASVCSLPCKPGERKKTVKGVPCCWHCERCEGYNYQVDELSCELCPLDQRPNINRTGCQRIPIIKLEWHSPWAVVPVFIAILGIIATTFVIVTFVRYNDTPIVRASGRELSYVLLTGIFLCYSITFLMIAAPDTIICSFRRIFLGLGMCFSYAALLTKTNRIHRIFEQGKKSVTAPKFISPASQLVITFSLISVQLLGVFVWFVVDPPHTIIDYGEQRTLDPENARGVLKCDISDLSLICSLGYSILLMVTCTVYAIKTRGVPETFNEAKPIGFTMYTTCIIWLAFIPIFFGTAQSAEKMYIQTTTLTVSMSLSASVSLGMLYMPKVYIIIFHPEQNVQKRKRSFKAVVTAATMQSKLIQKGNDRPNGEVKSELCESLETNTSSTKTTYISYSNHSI
Turning to `Cc1cc(C(=O)N/N=C/c2cc(Br)ccc2OC(=O)c2ccc(Br)cc2)n[nH]1`, the z-score is -0.0963.
`CC(NC(=O)c1ccco1)c1cccc2ccccc12` (stereo unspecified): the z-score is -0.644.
Then `COc1ccc(CCNC(=O)C2CCCN2C(=O)Nc2cccc(C(C)=O)c2)cc1OC` (stereo unspecified), with -0.66; and `Cc1cccn2c(=O)c3cc(C(=O)N4c5ccccc5CC4C)n(C)c3nc12` (stereo unspecified), with -0.424; and `CCOC(=O)/C(C(N)=NCCCO)=C(/O)c1ccccc1`, with -0.146.
`COc1cc(=O)[nH]c(=O)n1C(=O)Cc1ccccc1`: the z-score was 0.332.
Then `CCOc1ccc(Cc2c(Cl)nc(N)nc2Cl)cc1`, with -0.106; and `Cc1ccc2c(C(=O)CN3CCOCC3)c(C)[nH]c2c1`, with 0.335; and `Cc1ccc(N(C(=O)c2ccncc2)C2C=CS(=O)(=O)C2)cc1` (stereo unspecified), with -0.299.
In the case of `Cc1[nH]nc2ncc(C(=O)c3cc(Cl)cc(Cl)c3O)cc12` it was -0.034.
Then `O=C(NN=C1CCC(c2ccccc2)CC1)c1ccccc1-n1cccc1` (stereo unspecified), with -0.268; and `CC(C)(C)c1ccc(C(=O)NC(Cc2ccccc2)C(=O)O)cc1` (stereo unspecified), with -0.397.
On to `CC1CC(C)CN(Cc2nc(N)nc(Nc3ccc4ccccc4c3)n2)C1` (stereo unspecified), for which the z-score is active: 3.66.
Then `COc1ccc(C(=O)c2c[nH]c(C(=O)NCc3cccnc3)c2)cc1`, with -0.16; and `Cc1ccc(C(=O)Nc2ccc3nccnc3c2)cc1`, with 0.166; and `CN(C(=O)c1ccco1)c1nc(CC(=O)Nc2ccccc2)cs1`, with -0.0376.
Regarding `O=C(Nc1ccccc1)N(CCc1nc2ccccc2[nH]1)C1CCCC1`, the z-score was -0.56.
In the case of `Cn1ncc(Cl)c1C(=O)NCc1ccc(Cl)cc1` it was -0.0775; in that of `O=c1oc2ccccc2c2c1C(c1ccc(Cl)cc1)Nc1ccc3ccccc3c1-2` (stereo unspecified), -0.402.
Then `NC(=O)C1CCN(C(=O)CSc2nc3ccccc3[nH]2)CC1`, with -0.104; and `Cc1nc(C)n(CC(O)COc2ccc3cc(Br)ccc3c2)n1` (stereo unspecified), with 0.0501; and `O=C(Cn1cnc2c(nnn2Cc2ccc(F)cc2)c1=O)NCC1CCCO1` (stereo unspecified), with 0.169.
In the case of `CC(C)C(CC(=O)NCc1ccco1)c1ccco1` (stereo unspecified) it was -0.217.
Turning to `O=C(Cc1ccccc1)N/N=C/c1ccccc1OCc1ccc(Cl)cc1`, the z-score was -0.118.
Then `Cc1cc(NC(=O)c2ccc(NC(=O)CC(C)C)cc2)no1`, with -0.175.
Then `Cn1c(=O)c2c(nc(NCCO)n2C)n(C)c1=O`, with 0.204; and `COC(=O)c1c(NC(=O)CC2NCCNC2=O)sc2c1CCCC2` (stereo unspecified), with -0.458; and `O=C1C2C3c4ccccc4C(c4ccccc43)C2C(=O)N1c1cccc2cccnc12` (stereo unspecified), with -0.241.
In the case of `CC1(C)Cc2cccc(OCC(=O)Nc3ccccc3N3CCOCC3)c2O1` it was -1.79; in that of `CCCNC(=O)CN(C)C(=O)c1n[nH]c2ccccc12`, -0.0168.
Regarding `O=C(Nc1cccc(F)c1)c1ccc(S(=O)(=O)N2CCCC2)cc1`, the z-score was 0.102.
In the case of `CCOC(=O)c1sc(/N=C/c2ccc(O)cc2O)cc1C` it was -0.116.
Then `Cc1ccc(NC(=O)c2ccc(CN3CCc4ccccc4C3)cc2)cc1`, with 0.0157; and `O=C(NCc1cccnc1)c1cc(Cl)ccc1[N+](=O)[O-]`, with -0.256.
Then `CCOc1cc(NC(=S)NCC2CCCO2)c(OCC)cc1NC(=O)c1ccccc1` (stereo unspecified), with -0.282; and `CCC1(C)Cc2nc3[nH]c(=S)n(-c4ccccc4)c(=O)c3cc2CO1` (stereo unspecified), with -0.0711; and `O=C(Cn1ccc2ccccc2c1=O)N1CCN(Cc2ccc3c(c2)OCO3)CC1`, with 0.477.
`CCC(=S)/C=C1\Sc2ccccc2N1CCCS(=O)(=O)O` registered a z-score of 0.543.
As for `O=C1CC(c2ccco2)Cc2nc(Nc3ccc(F)cc3)ncc21` (stereo unspecified), the z-score was -0.666.
Then `Cc1ccc(NC(=O)CN(Cc2ccccc2)S(C)(=O)=O)cc1C`, with -0.124; and `O=C(CNCc1ccc(Cl)cc1)NCc1ccco1`, with -0.217.
Take `O=C(CCNS(=O)(=O)c1ccc(Br)s1)N1CCCCC1`: the z-score was -0.315.
Then `CC(=O)c1c(C)oc2ccc(N(C(=O)C3CCCCC3)S(=O)(=O)c3cc([N+](=O)[O-])ccc3C)cc12`, with 0.0278.
In the case of `Cc1cc(C)nc(SCCC(=O)Nc2ccccc2C)n1` it was 0.236.
For `CC(=O)Nc1ccc2c(c1)CN(c1cc(C)ccc1C)CO2`, the z-score was -0.238.
Then `c1ccc(OCc2nnnn2-c2ccccc2)cc1`, with -0.0761; and `Cn1nc(C(F)(F)F)cc1C(=O)NC1CCCCCC1`, with 0.13.
Then `O=C(CSc1nnnn1-c1ccc(Cl)cc1)NC(=O)Nc1ccc2c(c1)OCCO2`, with 1.46; and `Cc1ccc(/C=C2\SC(=S)N(CCCC(=O)Nc3nccs3)C2=O)cc1`, with 0.213.
With `Cc1cccc(NC(=O)CSc2nc3c(c(=O)[nH]2)CCCC3)c1C`, the z-score is -0.487.
Then `N=c1c2c(n(Cc3ccc(Br)cc3)c3c1CCC3)CCCC2`, with 0.0858; and `CCC1CCCCN1S(=O)(=O)c1ccc2c(c1)CCN2C(=O)C1CCC1` (stereo unspecified), with -0.458; and `CCCCC(=O)N/N=C/c1ccc(Sc2cccc3cccnc23)o1`, with 0.318.
Then `COc1cccc(/C=N/n2c(C)nc3ccccc3c2=O)c1O`, with -0.294; and `CNc1c(C(=O)O)ccc2c1C(=O)c1ccccc1C2=O`, with -0.963; and `COc1cc(CCN2C(=O)c3cccc4cccc(c34)C2=O)c(S(=O)(=O)NCCO)cc1OC`, with 0.0309.
With `CCOC(=O)C1CCN(C(=O)CN(c2ccc(Cl)c(C(F)(F)F)c2)S(C)(=O)=O)CC1`, the z-score is active: -4.72.
In the case of `O=C(NCc1cccnc1)Nc1ccccc1F` it was -0.0669.
In the case of `COc1ccc(OCC(=O)Nc2ccc3c(c2)nc(CN2CCCC2)n3C)cc1` it was 0.0515.
In the case of `Nc1nonc1-c1nc2ccccc2[nH]1` it was 0.315; in that of `CCCn1c(N)c(C(=O)CSc2nnc(-c3cccnc3)n2-c2ccc(C)cc2C)c(=O)[nH]c1=O`, -0.424.
On to `Cc1ccc(-c2nn(CC(=O)NC(C)c3ccccc3)c(=O)c3ccccc23)cc1` (stereo unspecified), for which the z-score is -0.853.
Then `CCNC(=O)NC(=O)C(C)OC(=O)c1cc(S(=O)(=O)N2CCCCCC2)ccc1OC` (stereo unspecified), with -0.708.
In the case of `CCOC(=O)c1cnc(Nc2nc3ccccc3o2)nc1CSc1ncccn1` it was 0.774.
Then `COc1ccccc1CN1CCCC(C(=O)N(C)Cc2ccccc2)C1` (stereo unspecified), with 0.513; and `O=C(c1c[nH]c2ccc(S(=O)(=O)N3CCOCC3)cc2c1=O)N1CCN(c2ccccn2)CC1`, with -0.213.
`Cc1ccc(C(=O)Nc2nnc(-c3ccco3)o2)cc1`: the z-score amounted to 0.435.
Then `CC(C)(C)c1ccc(NC(=S)NCc2cccs2)cc1`, with -0.232.
In the case of `CCOc1ccccc1N(C(=O)Nc1ccc(Cl)cc1)C1=NC(C)CS1` (stereo unspecified) it was -0.304; in that of `O=C(N/N=C/c1ccccn1)c1cc(-c2cccc3ccccc23)n[nH]1`, -0.836; in that of `Clc1ccc(C(c2nnnn2CCc2ccccc2)N2CCSCC2)cc1` (stereo unspecified), 0.0285.
In the case of `O=C(CCC1CCCC1)N1CCN(C(=O)c2ccco2)CC1` it was 2.43.
For the compound `Cc1ccccc1CSCC(=O)c1c(N)n(C)c(=O)n(C)c1=O`, the z-score was -0.253.
Then `COc1cccc(C2C(C(N)=O)=C(C)Nc3nc(-c4cccc(Cl)c4)nn32)c1` (stereo unspecified), with -0.342; and `O=C(Cc1ccccc1)Nc1ccc(N2CCN(Cc3ccccc3F)CC2)cc1`, with 0.34.
On to `CC(C)OC(=O)CCCNc1ccc([N+](=O)[O-])cc1[N+](=O)[O-]`, for which the z-score is -0.2.
In the case of `CCCNC(=O)Cn1c(=O)oc2ccccc21` it was -0.131; in that of `CCCCNC(=O)Cc1c(O)c2ccccc2[nH]c1=O`, 0.214; in that of `CSc1c2c(nc3ncnn13)CCC2`, -0.202.
Then `CC(=O)c1c(C)[nH]c(C(=O)N2c3ccccc3CC2C)c1C` (stereo unspecified), with -0.0545; and `Cc1ccc(CNC(=O)c2cnc(-c3ccccn3)nc2C(F)(F)F)cc1`, with -0.17; and `Cc1ccsc1/C=N/NC(=O)c1ccco1`, with 1.93.
On to `N/C(=N\OC(=O)c1ccc(Cl)cc1Cl)c1ccc(Cl)cc1`, for which the z-score is -0.299.
In the case of `CN1C(=O)C2(C(C#N)=C(N)Oc3c2oc(CO)cc3=O)c2ccccc21` (stereo unspecified) it was -0.124; in that of `Cc1nc(NC(=O)c2ccc(Cl)cc2)nc2cc3c(cc12)OCO3`, -0.325; in that of `COc1ccc(-c2cnc(SCC(=O)Nc3nc(C(C)(C)C)cs3)n2Cc2ccco2)cc1`, 0.0122.
In the case of `CCC1=NN(C(=O)CCc2ccccc2)C(O)(C(F)(F)F)C1` (stereo unspecified) it was -0.157; in that of `O=C(Nc1ccc(Cl)c(Cl)c1)N1CCSCC1`, -0.198; in that of `CC(=O)Nc1ccc(S(=O)(=O)NNC(=O)c2sc(=S)n(C)c2C)cc1`, -0.387.
In the case of `Oc1ccc2ccccc2c1CNc1cnc2ccccc2c1` it was -0.113; in that of `CSc1nc(NCc2ccccc2)c2c3c(sc2n1)CN(C)CC3`, 0.0364; in that of `CCn1c(CNc2ccccc2Cl)nnc1SCC(=O)NCc1ccccc1`, 0.0905.
`CC1CCC(C(=O)NC(C(=O)N2CCC(N3CCCCC3)CC2)C(C)C)CC1` (stereo unspecified) came in with a z-score of 0.0459.
In turn, `CC(=O)Nc1ccc(S(=O)(=O)N2CCN(Cc3ccncc3)CC2)cc1` showed a z-score of 0.478.
Then `O=C(CCN1C(=O)C2C3C=CC(C3)C2C1=O)Nc1ccc2ncccc2c1` (stereo unspecified), with 0.715; and `O=C(CN1CCCCC1)N1CCN(C(=O)CN2CCCCC2)CC1`, with 0.114; and `COc1ccccc1C(O)(C(=O)NN(C(=O)c1ccccc1)c1ccccc1C)c1cccs1` (stereo unspecified), with 0.161.
Then `CSc1ccc(C2C(C#N)=C(N)Oc3cc4c(cc32)OCO4)cc1` (stereo unspecified), with 0.0588; and `Cc1cc(C)n(/N=C/c2c[nH]c3ccccc23)c(=O)c1C#N`, with -0.235.
In the case of `O=C(C(Cc1ccc(Cl)cc1)NS(=O)(=O)c1ccccc1)N1CC[C@@]2(O)CCCC[C@H]2C1` (stereo partly specified) it was -0.214.
For `CCN(CC)C(NC(=O)c1ccccc1)C(=O)c1ccccc1` (stereo unspecified), the z-score is -0.0354.
Then `O=C(NCCN1C(=O)C2C3C=CC(C3)C2C1=O)Nc1cccnc1` (stereo unspecified), with 0.578; and `COc1cc2nc(C3CCC3)n(NC(=O)C3CCC3)c(=O)c2cc1OC`, with -0.223.
For the compound `O=C(COC(=O)c1ccc(S(=O)(=O)Nc2ccccc2)cc1)NCCC1=CCCCC1`, the z-score was -0.0968.
In the case of `CCN(CC)S(=O)(=O)c1ccc(-c2nnc(SCC(=O)N3c4ccccc4CC3C)o2)cc1` (stereo unspecified) it was -0.177; in that of `CCOC(=O)C1=C(c2ccccc2)NC(=S)NC1c1ccc(Cl)c([N+](=O)[O-])c1` (stereo unspecified), -0.825; in that of `O=C(CCCn1c(=O)c2ccccc2n(Cc2ccccc2)c1=O)NCc1ccco1`, -0.26.
For the compound `CO/N=C(\C)c1ncc(C(F)(F)F)cc1N1CCOCC1`, the z-score is -0.215.
In the case of `Cc1ccc(NC(=O)CN2CCc3ccccc3C2)cc1` it was -0.158; in that of `O=C(C1CC(=O)N(C2CCCC2)C1)N1CCN(c2ccccc2F)CC1` (stereo unspecified), -0.813; in that of `COC(=O)c1ccc(NC(=O)CSc2nccn2CCc2ccccc2)cc1`, -0.362.
